Data taken from paper PMC4336329 (PLoS ONE, 2015).
The whole screen tested about 310,000 compounds, of which about 14,000 (4.5%) showed an effect of 50% or more. The effect is printed as a negative number. Some of the results follow.

Biological target: human ether-à-go-go-related gene (hERG) potassium channel (human, UniProt Q12809)
Assay: primary screen, population patch clamp on CHO cells stably expressing hERG
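Note: peak tail current of the secondary pulse compared with the same well before compound.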

Chain of human ether-à-go-go-related gene (hERG) potassium channel (Q12809 whole entry, looked up): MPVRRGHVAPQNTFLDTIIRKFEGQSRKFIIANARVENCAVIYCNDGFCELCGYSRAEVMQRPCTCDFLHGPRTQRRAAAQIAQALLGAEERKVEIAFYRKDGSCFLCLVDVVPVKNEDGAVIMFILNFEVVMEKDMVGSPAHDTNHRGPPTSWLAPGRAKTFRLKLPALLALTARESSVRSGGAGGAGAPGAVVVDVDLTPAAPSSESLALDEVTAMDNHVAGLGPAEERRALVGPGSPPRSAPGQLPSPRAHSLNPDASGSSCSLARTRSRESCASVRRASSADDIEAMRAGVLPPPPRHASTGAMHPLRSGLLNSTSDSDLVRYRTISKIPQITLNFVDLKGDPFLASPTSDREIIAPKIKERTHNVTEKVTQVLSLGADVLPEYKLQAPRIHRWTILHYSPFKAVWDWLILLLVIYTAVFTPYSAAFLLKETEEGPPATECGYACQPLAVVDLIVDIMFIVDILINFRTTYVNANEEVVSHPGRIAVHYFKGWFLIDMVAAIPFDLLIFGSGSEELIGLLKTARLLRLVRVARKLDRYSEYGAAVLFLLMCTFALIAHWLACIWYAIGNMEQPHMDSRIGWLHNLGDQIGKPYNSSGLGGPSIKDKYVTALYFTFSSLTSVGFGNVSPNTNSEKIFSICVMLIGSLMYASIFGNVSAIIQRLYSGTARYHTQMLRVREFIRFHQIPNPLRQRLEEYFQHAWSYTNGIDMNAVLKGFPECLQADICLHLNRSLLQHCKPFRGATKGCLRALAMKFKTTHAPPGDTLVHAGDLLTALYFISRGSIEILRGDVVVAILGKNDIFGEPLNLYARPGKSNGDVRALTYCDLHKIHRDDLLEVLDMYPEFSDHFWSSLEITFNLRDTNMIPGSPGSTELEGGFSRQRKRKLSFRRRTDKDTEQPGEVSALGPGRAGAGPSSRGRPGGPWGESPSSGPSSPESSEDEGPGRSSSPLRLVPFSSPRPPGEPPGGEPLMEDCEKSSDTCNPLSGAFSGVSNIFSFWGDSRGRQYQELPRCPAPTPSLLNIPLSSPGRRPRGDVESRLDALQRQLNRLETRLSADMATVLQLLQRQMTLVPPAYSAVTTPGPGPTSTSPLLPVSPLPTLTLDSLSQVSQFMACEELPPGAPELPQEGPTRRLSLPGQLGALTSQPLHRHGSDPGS

Row | SMILES | hERG current change (%, negative = inhibition) at 10uM [%]
1 | Cc1c(C(=O)N2CCN(c3ccc(F)cc3)CC2)oc2c1C(=O)CCC2 | -20.1
2 | COC(=O)CCC(=O)N1CCCC(CNS(=O)(=O)c2ccc(OC)cc2)C1 (centres unmarked) | 39.4
3 | COc1ccccc1NC(=O)CCC(=O)OC(C)C(=O)c1ccccc1 (centres unmarked) | 15.6
4 | COc1cccc(NS(=O)(=O)c2ccc3c(c2)NC(=O)C(C)S3)c1 (centres unmarked) | -8.74
5 | c1cncc(CSc2nnc3ccc(-c4ccncc4)nn23)c1 | -26.7
6 | O=C(Cc1ccc(Cl)cc1)Nc1cccc(-c2nnc(-c3ccco3)o2)c1 | 7.27
7 | COc1ccc(CCN(C)C(=O)c2cc(-c3ccccc3)nc3ccc(C)cc23)cc1OC | -52.1
8 | CCC(=O)Oc1cccc(C(=O)Nc2ccc(-c3nnc(-c4ccco4)o3)cc2)c1 | 17.5
9 | CC(C)(C)c1ccc(/C=C/C(=O)Nc2ccncc2)cc1 | -2.45
10 | CC(C)Cc1nnc(NC(=O)c2cc(-c3ccncc3)nc3ccccc23)s1 | -20.9
11 | CSc1c(CC(=O)NCCO)n(C)c2ccccc12 | 9.12
12 | CCCn1c(SCC(=O)Nc2nc3ccccc3s2)nc2c1c(=O)n(C)c(=O)n2C | 0.583
13 | NC(N)=Nc1ccc(N=C(N)N)cc1 | 10.3
14 | CCN1CCCc2cc(CN(CCN3CCOCC3)C(=S)Nc3ccc(OC)c(Cl)c3)ccc21 | -9.09
15 | COc1cc2ccccc2cc1C(=O)NC(=S)Nc1cccc(C(=O)O)c1 | 21
16 | CCCC(NC(=O)CCc1c(C)c2cc3c(-c4ccccc4)coc3cc2oc1=O)C(=O)O (centres unmarked) | 4.33
17 | O=S(=O)(/N=C(/Nc1ccc(Cl)c(S(=O)(=O)Nc2ccccc2Cl)c1)c1ccc(F)cc1)c1ccccc1 | 5.21
18 | CCN(c1ccccc1)S(=O)(=O)c1ccc2c(c1)CC(C)N2C(=O)C1CC1 (centres unmarked) | 0.0873
19 | COc1ccc(OC)c(NC(=O)CSc2nc(-c3ccccc3)cc(=O)[nH]2)c1 | 19.9
20 | CC(C)CN(C(=O)CSc1nnc(-c2cccs2)n1N)c1c(N)n(Cc2ccccc2)c(=O)[nH]c1=O | -8.12
21 | CC1=NC(C#N)=C(C#N)NC(C)(C)C1 | 9.36
22 | O=C(CCS(=O)(=O)c1ccc(Cl)cc1)NCCc1c[nH]c2ccccc12 | -24.7

Row | SMILES | hERG current change (%, negative = inhibition) at 10uM [%]
23 | S=C(NCC1CCCO1)N1CCN(c2nc(-c3ccc(Cl)cc3)cs2)CC1 (centres unmarked) | 3.51
24 | CCCC(=O)NC(=S)Nc1cccc(-c2nc3ncccc3o2)c1 | 7.33
25 | Cc1cc2oc(=O)cc(CN(C)Cc3ccccc3)c2cc1C(C)C | 12.1
26 | Cc1ccc(N2C(=O)C3CCCN3C2=S)cc1C (centres unmarked) | 12.8
27 | O=S(=O)(c1ccc(F)cc1)N1CCN(c2nc(-c3cccnc3)nc3ccccc23)CC1 | -72
28 | Cc1ccnc(NC(=O)C23CC4CC(CC(C4)C2)C3)c1 | -0.984
29 | CC(C)Nc1nnc(SCC(=O)/C=C2\N(C)c3ccccc3C2(C)C)s1 | -65.1
30 | O=C1C=C(/C=C/C2C=CC=CC2)C[C@@H](c2ccc(Cl)cc2)C1 (some centres unmarked) | -19.8
31 | COC(=O)c1cccc(NC(=O)CCc2c(C)noc2C)c1 | -4.88
32 | Cc1ccc(CNC(=O)/C=C/c2ccc(S(=O)(=O)N3CCOCC3)cc2)cc1 | -9.64
33 | O=C(O)c1ccccc1C(=O)Nc1ccc(Oc2ccc3ccccc3c2)cc1 | 5.75
34 | Cc1nn(CCC(=O)O)c(C)c1C | 5.72
35 | Cc1nc2ccccc2c2oc(C(=O)N3CCc4ccccc4C3)cc12 | -17.6
36 | CCSc1ncc(C#N)c(N)n1 | 4.49
37 | CCN(CC)S(=O)(=O)c1ccc(C(=O)NNC(=O)c2csc(N3CCOCC3)n2)cc1 | -9.83
38 | OC1(C#CCN2CCCC2)c2ccccc2-c2ccccc21 | -7.14
39 | Cc1ccc(C2CC2C(=O)NNC(=S)Nc2ccc(Cl)cc2)cc1 (centres unmarked) | -2.87
40 | CCOc1ccccc1/C=C/C(=O)c1ccc(Cl)cc1 | 4.42
41 | C=CCN1CC(c2nc3ccccc3n2CCOc2ccccc2)CC1=O (centres unmarked) | -16.5
42 | COc1ccc(C(NC(=O)/C=C/c2ccco2)c2ccc(OC)cc2)cc1 | -13.3
43 | Cc1ccc(CC2CC(=O)N(CCc3ccccc3)C2=O)cc1 (centres unmarked) | -6
44 | C[C@@H](C(=O)N1CCN(Cc2ccc3c(c2)OCO3)CC1)n1nnc2ccccc2c1=O | -21.9

Row | SMILES | hERG current change (%, negative = inhibition) at 10uM [%]
45 | Cc1ccc(N2CC(C(=O)Nc3ccc4c(c3)OCCO4)CC2=O)cc1C (centres unmarked) | 3.69
46 | O=C1OC(c2ccc(Cl)cc2)/C(=C(/O)c2ccccc2)C1=O (centres unmarked) | -2.7
47 | O=C(O)c1cccc(NS(=O)(=O)c2cc(S(=O)(=O)c3ccc(Cl)cc3)ccc2Cl)c1 | -1.34
48 | O=C(Cn1cnc2ccccc2c1=O)NNC(=O)c1ccccc1 | 18.2
49 | CC(=O)CC(C)(C)S(=O)(=O)c1ccc(NC(C)=O)cc1 | 15.1
50 | COc1ccc(/C=N/NC(=O)c2ccccc2)cc1CN1CCN(c2ccc(F)cc2)CC1 | -74.5
51 | COC(=O)c1cccc(-c2ccc(/C=N/N3C(=O)C4C5C=CC(C6CC56)C4C3=O)o2)c1 (centres unmarked) | -8.32
52 | O=C(COc1ccc(OCc2ccccc2)cc1)NC1CCOC1=O (centres unmarked) | -0.106
53 | COc1ccc(CNC(=O)C2CCN(S(=O)(=O)N3CCOCC3)CC2)cc1 | -2.97
54 | O=C1CC2(CCN(C(=O)C3CC(=O)N(c4ccccc4)C3)CC2)Oc2ccccc21 (centres unmarked) | -77.4
55 | O=C(CSc1nnc(CNC(=O)c2c(F)cccc2F)o1)Nc1ccc2c(c1)OCCO2 | 7.93
56 | CCN(CC(=O)Nc1cccc(C(C)=O)c1)S(=O)(=O)c1ccc(OC)cc1 | -7.44
57 | CCCSc1nsc(SCCC)c1C#N | 11.9
58 | N#C/C(C(=O)NCc1ccco1)=C1/SC(Cc2ccc(F)cc2)C(=O)N1c1ccccc1 (centres unmarked) | 1.82
59 | Cc1ccc(SCc2c(C(=O)N/N=C/c3ccccc3)nnn2-c2nonc2N)cc1 | -1.47
60 | CCOc1ccc(S(=O)(=O)N(C)c2ccc(OCC(=O)N3CCOCC3)cc2)cc1 | -19.2
61 | O=C(N/N=C/c1ccc(Cl)c([N+](=O)[O-])c1)c1cnccn1 | -41
62 | NC(=O)c1ccsc1NC(=O)COC(=O)Cc1ccsc1 | -16.9
63 | CCN(CC)S(=O)(=O)c1ccc(N2CCOCC2)c(NC(=O)c2ccccc2)c1 | -25.6
64 | Cc1ccccc1-c1nc(CN2CCC(C(=O)NCCCN3CCCC(C)C3)CC2)c(C)o1 (centres unmarked) | 28.6
65 | COc1cc(/C=N/NC(=S)Nc2cccc(S(=O)(=O)N(C)C)c2)ccc1O | -9.56
66 | O=C(CSc1nnc(CNC(=O)c2ccco2)o1)Nc1cccc(Cl)c1 | -23.9

Row | SMILES | hERG current change (%, negative = inhibition) at 10uM [%]
67 | Cc1cccc(NC(=S)NC2CC3CCCC(C2)N3Cc2ccccc2)c1C (centres unmarked) | -10.4
68 | O=c1[nH]c(=O)n(-c2ccccc2)c(O)c1N=Nc1ccc(Br)cc1 | -9.32
69 | COC(=O)C1=C(c2ccc(S(C)(=O)=O)cc2)C[C@@H]2CC[C@H]1N2C(=O)N1CCC(C)CC1 | -10.8
70 | Cc1ccc(CNS(=O)(=O)c2ccc(C(F)(F)F)cc2)n1C | -0.938
71 | C=CCn1c(SC)nnc1-c1ccc2ncccc2c1 | 3.82
72 | CN1CCC(=NNC(=O)COc2ccc(Cl)cc2)CC1 | 17.4
73 | Cc1ccc(CS(=O)(=O)Cc2ccc(C(=O)NCCCN3CCOCC3)o2)cc1 | 6.75
74 | O=C(CN1CCC(c2nc3ccccc3s2)CC1)NCc1cccs1 | -37.2
75 | Oc1sc(C=Nc2ccccc2)c2ccccc12 | 7.99
76 | N#Cc1nc(-c2cccc3ccccc23)oc1NCC1CCCO1 (centres unmarked) | 11.4
77 | COc1ccc(Cl)cc1NC(=O)c1nnn(CC(=O)Nc2ccc3c(c2)OCO3)c1N | 23.7
78 | Cc1ccc(NC(=O)C2CC(=O)N(c3ccc4c(c3)OCCO4)C2)cc1S(=O)(=O)N(C)C (centres unmarked) | -8.57
79 | CCC1(CC)Cc2ccccc2C(N)=C1C#N | -15.2
80 | Cc1nn(CCc2n[nH]c(=S)n2C)c(C)c1Br | 5.63
81 | O=C(c1cccc(N2C(=O)C3C4C=CC(C4)C3C2=O)c1)N1CCCc2ccccc21 (centres unmarked) | -22.9
82 | Cc1nn(-c2ccccc2)c(=O)c2noc(C)c12 | 4.71
83 | O=C(CCCSc1nc2ccccc2[nH]1)NCc1ccco1 | 0.369
84 | COc1ccc(NC(=O)CN(C)C2CCCCC2)cc1Cl | -55
85 | Cc1cccc2cc(CN(CC3CCCO3)S(=O)(=O)c3ccccc3)c(=O)[nH]c12 (centres unmarked) | -21.6
86 | COC(=O)c1cccc(NS(=O)(=O)c2ccc(OC)c(OC)c2)c1C | -12.3
